Experimental data as given in PubChem BioAssay (NCATS).
Inconclusive results, whose numbers are uncertain, are shown with a selection of clear calls. For some of these results: Potencies of inconclusive entries are doubtful fits and often do not repeat. For some of these results: A note “side channel” means that the fit belongs to a control or component signal, not to the main read-out. Activity calls are given as the source filed them. Unless noted, calls come from the whole dose curve; as a rule, active = well fitted curve in the direction sought with a large enough effect; inconclusive = small, poorly fitted or top-dose-only effect, or another doubt; inactive = no such curve, though single readings can be large; an effect the other way counts as inactive or inconclusive.

Columns and labels:
[1] = AP1 Signaling Pathway (AID 357; active = well fitted curve in either direction with a large enough effect, not every such curve was filed as active; inconclusive = small, poorly fitted or top-dose-only effect, or another doubt;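 note: ME-180 reporter cells stimulated with EGF at its EC50 level; top concentration of the series differs between compounds; % is set by controls: 0 for no effect and ±100 for the full control effect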); settings: ME-180 AP-1-bla reporter, EGF-induced, beta-lactamase ratio, 5 h; at 7.69 µM (top of the series) unless noted
Procedure, shortened: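 Beta-lactamase reporter under AP-1 response element, ME-180 background. Stimulus: EC50 EGF. Compound exposure 5 h, 37 °C. Detection: CCF4, 2.5 h RT, 460/530 nm. Values: AC50 from titration.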

[2] = NFAT Signaling Pathway (AID 444; active = well fitted curve in either direction with a large enough effect, not every such curve was filed as active; inconclusive = small, poorly fitted or top-dose-only effect, or another doubt;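 note: carbachol stimulus at about its EC50 of 1 µM final; % is set by controls: 0 for no effect and ±100 for the full control effect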); settings: Jurkat NFAT-bla M1, carbachol, beta-lactamase ratio, 5 h; at 7.69 µM (top of the series) unless noted
Procedure, shortened: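 Jurkat cells with NFAT-driven β-lactamase reporter and co-expressed M1 receptor, stimulated with carbachol (final 1 uM, ~EC50), compound titration, 5 h at 37 °C. CCF4 loaded 1 h at RT; 460/530 nm ratio gave %activity and AC50.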

[3] = Stat Signaling Pathway (AID 446; active = well fitted curve in either direction with a large enough effect, not every such curve was filed as active; inconclusive = small, poorly fitted or top-dose-only effect, or another doubt;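 note: ME-180 cervical cancer cells given 40 pM IL-6 alongside compound; SIE-controlled beta-lactamase reporter measured as 460/530 nm FRET emission ratio; top concentration of the series differs between compounds; % is set by controls: 0 for no effect and ±100 for the full control effect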); settings: ME-180 SIE beta-lactamase reporter, IL-6 stimulated, 5 h; at 7.69 µM (top of the series) unless noted
Procedure, shortened: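 FRET read-out (405 nm excitation, 460/530 nm emission) of a beta-lactamase reporter under a STAT-inducible element in ME-180 cervical carcinoma cells. Cells with compound receive 40 pM IL-6 for 5 h. Values are normalised to AC90 stimulation and AC90 JAK-inhibitor controls.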

[4] = biological target: Cytochrome P450 2C9 (Homo sapiens) (UniProt P11712); experiment: qHTS Assay for Inhibitors and Substrates of Cytochrome P450 2C9 (AID 883); note: potency is the fitted concentration of half-maximal effect; nearly all actives have a fitted effect of over 60% in size
Procedure, shortened: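 10nM CYP2C9 + 100uM Luciferin-H (=KM), 25mM KPO4; cpd 10 min 37C; NADPH regen, 60 min 37C; stop/detect with P450 Glo-Buffer 20 min; luminescence. Norm. to 57uM sulphaphenazole as full inhibition.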

[5] = biological target: Cytochrome P450 2C19 (Homo sapiens) (UniProt P33261); experiment: qHTS Assay for Inhibitors and Substrates of Cytochrome P450 2C19 (AID 899); note: potency is the fitted concentration of half-maximal effect; nearly all actives have a fitted effect of over 60% in size
Procedure, shortened: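 Luminescent read-out of luciferin formed from Luciferin-H EGE (10uM, equal to KM). Enzyme 5nM in 50mM KPO4; compound added, 10 min at 37C, then NADPH regenerating system for 60 min at 37C. Full inhibition defined by 57uM ketoconazole.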

[6] = qHTS Assay for Lipid Storage Modulators (AID 1519; calls by dose curve; note: % is set by controls: 0 for no effect and ±100 for the full control effect); settings: Drosophila S3 cells, BODIPY lipid droplet/cell ratio, laser cytometry, cells loaded with oleic acid
Procedure, shortened: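 Cells seeded at 5,000 per well were treated with compounds over a concentration series and loaded with oleic acid (400 uM, as added). Lipid droplet fluorescence (488 nm excitation, 500-530 nm channel) was read by laser-scanning cytometry and normalized to 20 uM Triacsin C.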

[7] = biological target: 3',5'-cyclic-AMP phosphodiesterase 4B (Homo sapiens) (UniProt Q07343); experiment: qHTS Assay for Inhibitors of PDE-IV (AID 607; active = well fitted activation curve with a large enough effect in the main read-out, with a control signal flat, not every such curve was filed as active; inconclusive = small, poorly fitted or top-dose-only effect, or effect the other way, or a change in a side signal; note: potency is the fitted concentration of half-maximal effect); settings: HEK293 ACTOne CNG channel cells, membrane potential fluorescence; activation (PDE inhibition): at 22.9 µM (top of the series)
Chain of UniProt Q07343 (Q07343 whole entry, looked up): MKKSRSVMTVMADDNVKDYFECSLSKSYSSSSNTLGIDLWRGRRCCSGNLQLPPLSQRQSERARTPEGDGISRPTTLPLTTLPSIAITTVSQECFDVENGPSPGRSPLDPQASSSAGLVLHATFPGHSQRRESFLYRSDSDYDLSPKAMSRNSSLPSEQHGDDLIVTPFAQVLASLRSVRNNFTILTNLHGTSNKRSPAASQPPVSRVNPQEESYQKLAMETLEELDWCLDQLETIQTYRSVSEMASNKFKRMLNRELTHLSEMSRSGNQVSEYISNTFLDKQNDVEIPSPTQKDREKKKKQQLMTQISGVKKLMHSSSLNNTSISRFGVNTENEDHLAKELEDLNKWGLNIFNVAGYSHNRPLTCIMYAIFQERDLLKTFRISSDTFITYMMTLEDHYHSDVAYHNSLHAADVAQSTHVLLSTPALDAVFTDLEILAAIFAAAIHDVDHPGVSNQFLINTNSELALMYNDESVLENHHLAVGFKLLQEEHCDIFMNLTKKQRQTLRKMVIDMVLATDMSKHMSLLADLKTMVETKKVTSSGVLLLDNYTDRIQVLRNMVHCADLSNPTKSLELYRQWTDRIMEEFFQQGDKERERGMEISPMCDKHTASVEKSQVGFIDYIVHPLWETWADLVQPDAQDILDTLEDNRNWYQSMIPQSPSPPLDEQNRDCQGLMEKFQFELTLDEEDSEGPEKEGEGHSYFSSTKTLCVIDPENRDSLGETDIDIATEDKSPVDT
Procedure, shortened: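 Cell-based read-out of cAMP via a modified cyclic nucleotide-gated channel and membrane potential dye (535/590 nm) in HEK293 cells expressing PDE4 endogenously. Compounds tested up to 22.9 uM final; 100 uM RO 20-1724 reference.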

[8] = Primary qHTS for inhibitors of nuclear receptor binding SET domain protein 2 (NSD2) in an isogenic RCH-ACV NSD2 p.E1099K mutant (9B) (AID 1645876); note: % is set by controls: 0 for no effect and ±100 for the full control effect; nearly all actives have a fitted effect of over 70% in size
[9] = NCATS anti-infectives library activity on the primary C. elegans qHTS viability assay (AID 1745855; calls by dose curve)
Procedure, shortened: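 GFP read-out by 488 nm laser cytometry at day 0, 3 and 7, gated on object perimeter, area and peak intensity, scored viability of PE254-GFP-FLuc worms exposed to compound in S medium with bacterial capsules at 21 °C.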

[10] = biological target: Cytochrome P450 3A4 (Homo sapiens) (UniProt P08684); experiment: qHTS Assay for Activators of Cytochrome P450 3A4 (AID 885); note: nearly all actives have a fitted effect of over 65% in size
Chain of UniProt P08684 (P08684 whole entry, looked up): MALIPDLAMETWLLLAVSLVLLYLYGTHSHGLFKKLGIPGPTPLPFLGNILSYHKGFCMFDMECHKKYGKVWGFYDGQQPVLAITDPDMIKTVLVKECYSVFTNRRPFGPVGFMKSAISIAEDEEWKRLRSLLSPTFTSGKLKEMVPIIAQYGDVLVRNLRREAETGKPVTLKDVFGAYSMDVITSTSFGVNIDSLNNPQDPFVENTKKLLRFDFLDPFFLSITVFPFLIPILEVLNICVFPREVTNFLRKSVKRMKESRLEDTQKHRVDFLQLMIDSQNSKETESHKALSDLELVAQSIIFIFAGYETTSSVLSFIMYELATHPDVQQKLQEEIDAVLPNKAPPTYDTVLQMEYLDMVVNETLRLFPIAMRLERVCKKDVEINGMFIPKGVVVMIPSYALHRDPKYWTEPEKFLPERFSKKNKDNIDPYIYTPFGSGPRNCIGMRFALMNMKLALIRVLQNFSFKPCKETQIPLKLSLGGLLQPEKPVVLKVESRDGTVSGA
Procedure, shortened: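 Luminescent readout of luciferin formed from 25 uM Luciferin-PPXE (KM level) by 20 nM CYP3A4 in 200 mM KPO4, with 60 min NADPH-driven reaction at room temperature after 10 min compound exposure. Ketoconazole (57 uM) defined 100% inhibition.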

[11] = biological target: Rap guanine nucleotide exchange factor 3 (Homo sapiens) (UniProt O95398); experiment: Confirmatory qHTS for agonist of cAMP-regulated guanine nucleotide exchange factor 3 (EPAC1) (AID 1645881); settings: EPAC1 Rap1B BODIPY-GDP exchange fluorescence; activation: at 154 µM (top of the series), 100% = cAMP control response; note: potency is the fitted concentration of half-maximal effect; nearly all actives have a fitted effect of over 75% in size
Chain of UniProt O95398 (O95398 whole entry, looked up): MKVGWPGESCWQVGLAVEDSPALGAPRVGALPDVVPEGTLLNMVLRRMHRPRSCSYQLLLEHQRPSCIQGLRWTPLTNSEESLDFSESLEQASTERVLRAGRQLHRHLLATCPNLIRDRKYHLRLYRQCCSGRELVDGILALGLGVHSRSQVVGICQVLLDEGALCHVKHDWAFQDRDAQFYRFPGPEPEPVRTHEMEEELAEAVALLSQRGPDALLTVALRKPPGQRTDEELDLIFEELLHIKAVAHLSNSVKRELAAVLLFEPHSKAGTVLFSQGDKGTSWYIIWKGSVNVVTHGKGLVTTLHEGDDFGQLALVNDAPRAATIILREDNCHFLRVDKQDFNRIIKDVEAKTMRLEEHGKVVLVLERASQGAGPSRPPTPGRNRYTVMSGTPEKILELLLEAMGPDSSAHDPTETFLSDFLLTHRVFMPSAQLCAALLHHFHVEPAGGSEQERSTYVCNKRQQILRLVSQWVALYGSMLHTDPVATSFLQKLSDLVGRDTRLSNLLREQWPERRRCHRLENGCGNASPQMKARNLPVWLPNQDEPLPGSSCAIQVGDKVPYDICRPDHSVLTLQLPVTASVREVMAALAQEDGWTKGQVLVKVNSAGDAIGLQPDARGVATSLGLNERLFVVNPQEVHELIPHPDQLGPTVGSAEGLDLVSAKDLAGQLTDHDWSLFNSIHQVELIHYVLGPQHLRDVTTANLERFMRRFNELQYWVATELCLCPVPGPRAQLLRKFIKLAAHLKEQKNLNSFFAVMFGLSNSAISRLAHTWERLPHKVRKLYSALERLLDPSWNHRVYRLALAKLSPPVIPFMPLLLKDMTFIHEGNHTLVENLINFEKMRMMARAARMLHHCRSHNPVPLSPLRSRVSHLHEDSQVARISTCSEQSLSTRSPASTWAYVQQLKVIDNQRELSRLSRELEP

[12] = biological target: Rap guanine nucleotide exchange factor 4 (Homo sapiens) (UniProt Q8WZA2); experiment: Confirmatory qHTS for agonist of cAMP-regulated guanine nucleotide exchange factor 4 (EPAC2) (AID 1645884); settings: EPAC2 GEF activity, Rap1B-BODIPY-GDP fluorescence; activation: at 154 µM (top of the series), percent relative to cAMP agonist control;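 note: nucleotide exchange releases bodipy-GDP from Rap1 and this lowers its fluorescence; potency is the fitted concentration of half-maximal effect; nearly all actives have a fitted effect of over 65% in size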
Chain of UniProt Q8WZA2 (Q8WZA2 whole entry, looked up): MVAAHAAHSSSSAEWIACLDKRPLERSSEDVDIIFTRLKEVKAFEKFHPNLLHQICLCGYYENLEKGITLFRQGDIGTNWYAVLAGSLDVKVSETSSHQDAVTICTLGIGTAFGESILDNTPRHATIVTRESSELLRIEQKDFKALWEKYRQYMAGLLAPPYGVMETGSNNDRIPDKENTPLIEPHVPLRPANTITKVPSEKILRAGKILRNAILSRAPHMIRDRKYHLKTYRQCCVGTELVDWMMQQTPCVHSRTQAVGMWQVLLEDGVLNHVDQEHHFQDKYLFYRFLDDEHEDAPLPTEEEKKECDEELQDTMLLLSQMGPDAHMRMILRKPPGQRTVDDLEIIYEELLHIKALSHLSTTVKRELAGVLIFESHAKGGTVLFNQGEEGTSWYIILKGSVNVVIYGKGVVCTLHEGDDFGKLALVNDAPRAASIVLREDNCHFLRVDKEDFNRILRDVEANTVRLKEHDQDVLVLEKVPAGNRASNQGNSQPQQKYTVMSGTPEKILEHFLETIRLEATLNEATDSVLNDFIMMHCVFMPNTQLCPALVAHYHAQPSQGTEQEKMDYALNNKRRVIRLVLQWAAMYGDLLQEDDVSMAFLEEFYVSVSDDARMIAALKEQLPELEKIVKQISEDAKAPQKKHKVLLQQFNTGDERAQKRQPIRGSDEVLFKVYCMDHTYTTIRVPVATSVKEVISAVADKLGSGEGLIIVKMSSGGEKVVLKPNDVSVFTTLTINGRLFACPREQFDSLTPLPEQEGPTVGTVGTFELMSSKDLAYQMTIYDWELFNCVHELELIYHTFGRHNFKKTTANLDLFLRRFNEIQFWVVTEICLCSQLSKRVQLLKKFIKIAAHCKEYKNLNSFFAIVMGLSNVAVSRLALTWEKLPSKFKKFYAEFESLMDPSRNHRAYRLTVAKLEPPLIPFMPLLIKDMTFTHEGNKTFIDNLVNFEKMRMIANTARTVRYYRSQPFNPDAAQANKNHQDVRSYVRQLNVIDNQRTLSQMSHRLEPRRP

[13] = biological target: Dual specificity protein kinase CLK4 (Homo sapiens) (UniProt Q9HAZ1); experiment: qHTS Assay for Inhibitors of CDC-like Kinase 4 (Kinase-Glo Assay) (AID 1770); note: % is set by controls: 0 for no effect and ±100 for the full control effect; nearly all actives have a fitted effect of over 65% in size
Chain of UniProt Q9HAZ1 (Q9HAZ1 whole entry, looked up): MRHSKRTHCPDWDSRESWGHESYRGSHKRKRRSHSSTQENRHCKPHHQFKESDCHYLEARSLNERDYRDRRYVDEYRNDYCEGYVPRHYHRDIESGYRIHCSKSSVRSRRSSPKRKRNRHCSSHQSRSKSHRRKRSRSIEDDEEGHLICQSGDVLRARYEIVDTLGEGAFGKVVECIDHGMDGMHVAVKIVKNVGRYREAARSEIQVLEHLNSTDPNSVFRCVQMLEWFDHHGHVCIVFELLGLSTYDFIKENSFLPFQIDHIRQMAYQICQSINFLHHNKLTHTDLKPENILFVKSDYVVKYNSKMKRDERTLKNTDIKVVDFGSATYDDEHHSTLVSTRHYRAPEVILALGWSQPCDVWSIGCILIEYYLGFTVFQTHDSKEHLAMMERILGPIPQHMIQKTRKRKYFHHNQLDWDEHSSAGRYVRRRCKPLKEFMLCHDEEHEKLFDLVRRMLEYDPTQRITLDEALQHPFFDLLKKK
Procedure, shortened: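 Recombinant human Clk4 (25 nM) phosphorylated RS repeat peptide (100 uM) with 1 uM ATP in Tris pH 7.5/MgCl2/EGTA/DTT/Triton buffer for 4.5 h at room temperature. Residual ATP was quantified by Kinase-Glo luciferase luminescence.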

[14] = biological target: Ubiquitin carboxyl-terminal hydrolase 1 (Homo sapiens) (UniProt O94782); experiment: Inhibitors of USP1/UAF1: Pilot qHTS (AID 504865); note: potency is the fitted concentration of half-maximal effect;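 note: rhodamine fluorescence freed from ubiquitin-rhodamine substrate followed over time; nearly all actives have a fitted effect of over 35% in size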
Chain of UniProt O94782 (O94782 whole entry, looked up): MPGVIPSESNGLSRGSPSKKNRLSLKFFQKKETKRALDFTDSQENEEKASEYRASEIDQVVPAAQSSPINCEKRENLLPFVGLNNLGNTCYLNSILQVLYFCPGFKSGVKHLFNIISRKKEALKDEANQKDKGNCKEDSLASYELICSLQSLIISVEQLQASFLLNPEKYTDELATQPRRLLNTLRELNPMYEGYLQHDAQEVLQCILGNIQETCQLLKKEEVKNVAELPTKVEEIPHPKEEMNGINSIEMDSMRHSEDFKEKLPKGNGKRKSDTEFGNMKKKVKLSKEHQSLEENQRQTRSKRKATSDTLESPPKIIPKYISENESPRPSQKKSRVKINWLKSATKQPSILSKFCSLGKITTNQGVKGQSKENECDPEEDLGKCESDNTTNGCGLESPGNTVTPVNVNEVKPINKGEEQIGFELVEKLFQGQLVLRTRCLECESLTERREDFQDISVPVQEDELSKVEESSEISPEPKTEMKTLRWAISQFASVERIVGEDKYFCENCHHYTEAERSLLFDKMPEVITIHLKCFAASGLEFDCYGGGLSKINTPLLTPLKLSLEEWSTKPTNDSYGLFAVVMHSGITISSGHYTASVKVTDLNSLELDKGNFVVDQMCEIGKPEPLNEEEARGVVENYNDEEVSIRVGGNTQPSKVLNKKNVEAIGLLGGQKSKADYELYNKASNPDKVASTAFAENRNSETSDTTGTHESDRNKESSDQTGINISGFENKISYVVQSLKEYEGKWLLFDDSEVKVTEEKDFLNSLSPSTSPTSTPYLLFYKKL
Procedure, shortened: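 USP1/UAF1 complex (1nM) preincubated with compound 15 min at room temperature, then Ub-Rho substrate (150nM final) added. Fluorescence read kinetically at 480/540 nm, 6 reads every 60 seconds. Buffer: 50mM HEPES pH 7.8, 0.5mM EDTA, 0.1 mg/ml BSA, 1mM TCEP, 0.01% Tween-20.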

[15] = biological target: Cytochrome P450 1A2 (Homo sapiens) (UniProt P05177); experiment: p450-cyp1a2 (AID 410; calls by dose curve; note: potency is the fitted concentration of half-maximal effect)
Chain of UniProt P05177 (P05177 whole entry, looked up): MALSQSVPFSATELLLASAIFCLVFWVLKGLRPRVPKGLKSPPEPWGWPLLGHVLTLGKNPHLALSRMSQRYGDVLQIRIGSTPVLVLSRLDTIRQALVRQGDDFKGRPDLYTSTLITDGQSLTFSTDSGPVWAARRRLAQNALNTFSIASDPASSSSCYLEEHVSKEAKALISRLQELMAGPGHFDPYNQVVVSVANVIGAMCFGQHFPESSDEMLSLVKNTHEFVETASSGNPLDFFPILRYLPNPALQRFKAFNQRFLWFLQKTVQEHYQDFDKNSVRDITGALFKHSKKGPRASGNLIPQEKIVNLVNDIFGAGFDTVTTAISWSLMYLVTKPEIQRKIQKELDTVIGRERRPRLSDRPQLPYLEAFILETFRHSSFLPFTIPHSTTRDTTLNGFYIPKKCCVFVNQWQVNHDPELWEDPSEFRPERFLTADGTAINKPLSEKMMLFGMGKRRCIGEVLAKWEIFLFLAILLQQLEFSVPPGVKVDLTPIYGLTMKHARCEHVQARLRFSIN
Procedure, shortened: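 O-Demethylation of luciferin 6' methyl ether by human CYP1A2 is monitored as luciferase luminescence. Substrate sits at Km (100uM); enzyme is 20nM. Values are scaled to 57 uM furafylline as maximal inhibition.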

[16] = qHTS Assay for Identification of Small Molecule Agonists for Hypoxia Response Element Signaling Pathway (AID 914; active = well fitted activation curve with a large enough effect in the signal ratio, with a control signal flat, not every such curve was filed as active; inconclusive = small, poorly fitted or top-dose-only effect, or effect the other way, or a change in a side signal; the % refers to the signal ratio; note: potency is the fitted concentration of half-maximal effect); settings: ME-180 (cervical carcinoma) HRE-bla reporter, beta-lactamase ratio, CoCl2, 17 h; activation: active compounds read high
Procedure, shortened: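 Positive modulation of EC50 CoCl2-induced hypoxia response element signaling is measured in ME-180 cells with a beta-lactamase reporter. Compounds are titrated, incubation runs 17 hours, and %Activity derives from the blue/green ratio.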

[17] = biological target: Rap guanine nucleotide exchange factor 3 (Homo sapiens) (UniProt O95398); experiment: Confirmatory qHTS for antagonist of cAMP-regulated guanine nucleotide exchange factor 3 (EPAC1) (AID 1645880); settings: EPAC1 Rap1B-BODIPY-GDP exchange, fluorescence; activity, negative = inhibition: at 115 µM (top of the series); note: potency is the fitted concentration of half-maximal effect; nearly all actives have a fitted effect of over 55% in size
Procedure, shortened: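 Released BODIPY-GDP fluoresces less than Rap1-bound BODIPY-GDP; the signal is followed at 480/540 nm at 5-min intervals over 30 min, after 5 min at room temperature. Reactions contain 100 nM EPAC1, 250 nM RAP1B-BODIPY-GDP and 50 uM GDP; results are normalized to ATA and DMSO.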

[18] = biological target: Rap guanine nucleotide exchange factor 4 (Homo sapiens) (UniProt Q8WZA2); experiment: Confirmatory qHTS for antagonist of cAMP-regulated guanine nucleotide exchange factor 4 (EPAC2) (AID 1645885); settings: activity change, negative = inhibition: at 12.7 µM (top of the series) unless noted; note: potency is the fitted concentration of half-maximal effect; nearly all actives have a fitted effect of over 25% in size
Tags give direction and shape of the fitted curve or compound fluorescence and quenching.

For COc1ccc(-c2cc(=O)c3c(O)cc(O)cc3o2)cc1, the activity change, negative = inhibition [1] was inconclusive: -104% [inhibitor] [at 17.2 µM], the activity change, negative = inhibition [2] was inconclusive: -42.4% [inhibitor] [at 17.2 µM] and the activity, negative = inhibition [3] was inconclusive: -95.8% [inhibitor] [at 17.2 µM]. The Potency [4] was inconclusive: 1.26 µM [inhibitor, full curve] and the Potency [5] was inconclusive: 1 µM [inhibitor, full curve, poor fit].

In the case of COc1ccc([C@@H]2CC(=O)c3c(O)cc(O)cc3O2)cc1O, the activity change, negative = inhibition [2] is reported as inactive: -2.52% [at 17.2 µM] and the activity change, negative = inhibition ([6]; at 25.7 µM (top of the series)) is reported as inactive: 0.892%.

In the case of Cc1nc2c(O)cccc2c(=O)[nH]1, the Potency [7] is reported as inconclusive: 19 µM [inhibitor, single point], the Potency [8] is reported as “inactive” and the Potency [9] is reported as “inactive”.

With COc1ccc(/C=C/C(=O)c2cccs2)c(OC)c1 the Potency [10] was “inactive”, the Potency [11] was inconclusive: 112 µM [activator, single point] and the Potency [12] was inconclusive: 79.3 µM [activator, single point].

In the case of Cn1cc(-c2nc3cnc(N4CCOCC4)nc3n(CCC#N)c2=O)c2ccccc21, the Potency [13] is reported as “inactive”, the Potency [14] is reported as “inactive” and the Potency [11] is reported as inconclusive: 63 µM [activator, partial curve, poor fit]. The Potency [12] was inconclusive: 50 µM [activator, partial curve, poor fit].

With COc1ccc2c(c1)OCC(Cc1ccc(OC)c(OC)c1)C2O (stereo not drawn) the Potency [14] was inconclusive: 100 µM [inhibitor, partial curve, poor fit].

With O=c1c(-c2cc(F)cc(F)c2)nc2cnc(N3CCNCC3)nc2n1Cc1cccs1 the activity change, negative = inhibition [1] was active: 98% [activator], the Potency [15] was inconclusive: 2.51 µM [decreasing] and the activity change, negative = inhibition [2] was inconclusive: 122% [activator]. For the same compound, the activity, negative = inhibition [3] was inconclusive: 292% [activator], the Potency [7] was inconclusive: 15.8 µM [inhibitor, single point] and the Potency [16] was inconclusive: 3.16 µM [fluorescent, side channel, partial curve]. For the same compound, the Potency ([6]; activity change, negative = inhibition: at 57.5 µM (top of the series) unless noted) was “inactive”, the Potency [17] was inconclusive: 8.85 µM [inhibitor, partial curve, poor fit] and the Potency [12] was inconclusive: 44.6 µM [activator, partial curve]. The Potency [18] was active: 55.5 µM.
